Measured values reported in ChEMBL document CHEMBL4888484, “Replenishing the malaria drug discovery pipeline: Screening and hit evaluation of the MMV Hit Generation Library 1 (HGL1) against asexual blood stage Plasmodium falciparum ,using a nano luciferase reporter read-out” (2022).
About 540 (0.36%) of roughly 150,000 compounds showed an effect of 50% or more. The list shows a part of the results.

What follows are compounds tested on Plasmodium falciparum (assay: Primary screen in NF54 nanoGlo assay, in single point, at 2uM, 72h; a lower Z score goes with more inhibition). Details: timepoint 72 hour.
Assay type: functional, Erythrocyte

SMILES | % Inhibition [%] | Z score
COc1ccc(CN2CCCS(=O)(=O)CC2)cc1OCc1ccccc1 | -5 | 0.97
Cc1cc(C(=O)N2CCOCC2)cc2c1N(C)S(=O)(=O)c1ccccc1-2 | 7 | -0.9
COC1(C)CC(Nc2nc(N)c3cnn(C)c3n2)C1(C)C (stereo not drawn) | -9 | 1.57
CC(C)[C@@H](C#N)N1CCN(C(=O)c2cccc(-n3ccnc3)c2)CC1 | -7 | 0.68
N#Cc1ccc(C(=O)NCc2nccn2CCCc2ccccc2)[nH]1 | 0 | -0.03
CCN(c1ccccc1)S(=O)(=O)c1cc(-c2nc(C)cs2)sc1C | -6 | 0.68
CNc1snc(C)c1C(=O)N1CCN(Cc2ccc(-c3cccc(F)c3)s2)CC1 | 2 | -0.21
Cc1noc(C)c1C(=O)NCc1ccnc(-c2cccnc2)c1 | -6 | 0.89
CCOC(=O)c1cnn(-c2ccccn2)c1CN1CCC(O)(c2cccc(C(F)(F)F)c2)CC1 | 5 | -0.65
NC1(c2noc(Cn3ncc4ccccc4c3=O)n2)CCC1 | 15 | -1.25
CC#CC[N+](C)(CC#CC)CC(=O)c1ccccc1 | -1 | 0.07
c1ccc(Cn2c(CN3CCCCC3)nc3ccccc32)cc1 | -12 | 1.55
O=C(NCc1cncc(-c2ccoc2)c1)Nc1ccccc1C(F)(F)F | 9 | -1.15
COCc1nc2n(n1)[C@@H](c1ccc(C(C)C)cc1)C[C@@H](C)N2 | 9 | -1.12
COc1ncc(-c2c(-c3ccccc3)ncn2CCNC(C)=O)cn1 | -18 | 1.56
CC(C)CCn1c(N2CCC[C@H](C(=O)NC3CC3)C2)nc2ccccc21 | -5 | 0.5
O=C(NCCCN1CCOCC1)c1nnc(Cc2ccccc2Cl)o1 | 2 | -0.27
Cc1cccc2nc(C(=O)N(C)Cc3ncon3)c(F)n12 | -1 | 0.13
Cc1ccc(N2CCN(Cc3nc(C(=O)NCC4CC4)co3)CC2)cc1 | -9 | 1.36
CCS(=O)(=O)NCc1ccc(F)c(C)c1 | -3 | 0.29
O=C(CN1C(=O)NC2(CCCCCCC2)C1=O)NC1CC1 | 17 | -1.94

SMILES | % Inhibition [%] | Z score
COc1ccc(N(C)Cc2nnc(-c3ccco3)o2)cc1OC | 0 | -0.01
CS(=O)(=O)CCC(=O)Nc1ccc(F)c(Br)c1 | 8 | -1.1
CC[C@H]1CC[C@@H](C)N(C(=O)c2ccc3[nH]c(=O)[nH]c3c2)C1 | -12 | 1.16
Cc1ccc(CNC(=O)[C@@H](C)C2CCOCC2)cc1C | 30 | -0.61
CC(C)c1cc(C(=O)N2CCNCC2)n(C)n1 | -7 | 0.76
Cc1ccc(CNC(=O)C2CCN(S(=O)(=O)c3ccc4c(ccn4C)c3)CC2)o1 | -22 | 3.44
N#Cc1ccc(F)cc1CN1CCN(C(=O)CN2CCOCC2)CC1 | -9 | 1.16
CC(=O)N[C@@H]1C[C@H](CCc2ccccc2)O[C@H](c2cnn3cccnc23)C1 | 0 | -0.03
Cc1ccccc1[C@H]1CN(C(=O)C2(C)CCNCC2)C[C@@H]1C(=O)O | 2 | -0.32
CN1CCC[C@H](CN(CCc2ccccc2)C(=O)Cn2cncn2)C1 | -5 | 0.56
Cc1c(NC(=O)N[C@@H](C)c2nc(CC(C)C)no2)cc2[nH]cnc2c1C | -12 | 1.79
NC(=O)[C@@H]1CCCCN1C(=O)CNC(=O)CC1CCCCC1 | -13 | 1.31
N#Cc1ccc(C(=O)NCc2cc(-c3ccccc3F)no2)cn1 | -1 | 0.15
O=S(=O)(CC1CCC1)N1CC2(CCCO2)C1C1CC1 (stereo not drawn) | -4 | 0.66
CN(C)[C@H]1CCC[C@@H]1Nc1nnc(-c2ccccc2)s1 | -11 | 1.49
O=C(CN1C(=O)C2CC=CCC2C1=O)N1CCN(c2ncccn2)CC1 (stereo not drawn) | 0 | -0.08
CCn1cc(CN2CC[C@H](CO)[C@H](NC(=O)c3cccnc3)C2)cn1 | -6 | 0.86
O=C(C[C@@H]1OCCc2ccccc21)NCCC(=O)N1CCCCCC1 | 2 | -0.28
CC1CCC(C)C(NC2=NS(=O)(=O)c3ccccc32)C1 (stereo not drawn) | 32 | -3.62
Cc1c(C(=O)N2CCN(c3ccccc3Cl)CC2)nnn1C1CCNCC1 | -13 | 1.18
CN1CC2(CCN(Cc3ccccc3C#N)CC2)C[C@@H](c2ccccc2)C1=O | -23 | 2.21

SMILES | % Inhibition [%] | Z score
COc1ccc([C@@]2(C)NC(=O)N(CC(=O)Nc3cc(C)nn3-c3ccc(C)cc3)C2=O)cc1OC | -8 | 1.13
COCC1(NC(=O)Nc2ccc(OCc3cccnc3)cc2)CCC1 | -2 | 0.3
O=C(CCc1ccccc1)NC1CCN(c2ccccc2C(=O)N2CCN(C3CCCCCC3)CC2)CC1 | -16 | 2.12
CCc1ccc(NC(=O)CN(C)C2CCN(c3ccccn3)CC2)cc1 | -16 | 2.62
COc1cccc(Nc2ccc(NC(=O)N3CCO[C@](C)(C(F)F)C3)nc2)c1 | -3 | 0.38
C[C@@H](C(=O)NCCc1csc(N)n1)N1CCN(C)CC1 | -11 | 2.06
CC1=NN(C(=O)c2cccnc2)[C@@](O)(c2cccnc2)C1 | 8 | -1.46
O=C(c1ccccn1)N1C[C@H]2CC[C@@H](C1)N(C(=O)Nc1cccc(Cl)c1)C2 | -1 | 0.06
CN(Cc1ccc(C#N)cc1F)C1CCCCC1S(C)(=O)=O (stereo not drawn) | -7 | 0.98
Cc1cccc(-n2c(=O)c3ccccc3n([C@@H](C)C(=O)NCc3cccc(C(F)(F)F)c3)c2=O)c1C | 6 | -0.75
O=C(c1nc2ccc(Cl)cn2c1F)N1CCC[C@@]2(CCOC2)C1 | -10 | 1.95
Cc1ncc(C(=O)N2CCN(Cc3ccc(C)c(C)c3)C(=O)C2)s1 | -13 | 1.77
CCCn1ccnc1-c1cn([C@H]2CCN(Cc3ccccc3)C2)nn1 | -4 | 0.6
C=CC[C@H](C)NS(=O)(=O)c1ccc(C(=O)O)c(C)c1 | 9 | -1.58
CCNS(=O)(=O)c1cc(S(=O)(=O)NCC)c(OC)cc1OC | 1 | -0.19
O=C(NCc1ccccc1CN1CCCCCC1)c1c[nH]nn1 | 4 | -0.58
CC[C@H](NC(=O)C(C)(C)OC)c1ncccc1C | -26 | 2.74
O=C1OC(C(=O)N2CCCCC2C(=O)Nc2ccc(Cl)cc2Cl)Cc2ccccc21 (stereo not drawn) | -4 | 0.46
COc1ccc(N2C=NS(=O)(=O)c3cccnc32)cc1F | -6 | 0.91
Cc1cccc2c(=O)n(CCC(=O)Nc3ccccc3Oc3ccccc3Cl)cnc12 | -8 | 1.23
Cc1nc(C(F)(F)F)c(Cn2cnc3snc(C)c3c2=O)s1 | -15 | 1.67

SMILES | % Inhibition [%] | Z score
CN1CC[C@H](N2CC3(CCC2=O)CCN(c2ncnc4[nH]ccc24)CC3)C1 | -10 | 1.18
O=C(CNC(=O)c1sccc1OC(F)F)Nc1cn[nH]c1 | 6 | -0.99
CC(C)(C)n1nnnc1[C@@H]1CC2(CCOCC2)C(=O)N1Cc1ccc(F)cc1Cl | -8 | 0.88
CCN1CC2(CCN(C(=O)c3cccc(-c4ncc[nH]4)c3)CC2)CC1=O | -6 | 0.93
O=C(c1cnc2ccc(F)cc2c1N1CCN(c2ccccc2)CC1)N1CCCCC1 | -9 | 1.05
O=C(c1nnc2n1CCCC2)N1CCC(c2nc3ccccc3o2)CC1 | -11 | 1.81
CC1CC(=O)CCC1C(=O)NCCc1ccccc1Br (stereo not drawn) | -24 | 2.41
CC(C)c1ocnc1C(=O)Nc1ccc(NC[C@H]2CCCO2)c(F)c1 | -10 | 0.95
COc1ccc(-c2cc(C(=O)N3c4ccc(F)cc4CC[C@@H]3C)c3ccccc3n2)cc1OC | -14 | 1.61
COc1ccc(CNC(=O)c2ccc(N3C(=O)CCS3(=O)=O)cc2Cl)cc1OC | 0 | 0.06
O=C(C1CCC1c1ccc(F)cc1)N1CCC(c2nnc[nH]2)C1 (stereo not drawn) | -3 | 0.45
Cc1nnc(CN2CCc3[nH]nc(C)c3C2)s1 | -15 | 1.97
C[C@@H](CCc1ccccc1)NC(=O)c1cn(CCN)nn1 | -3 | 0.57
CCOc1cc2c(c3[nH]c(C(=O)NC)cc13)O[C@@H](C)C2 | -15 | 2.12
COCCN1CCN(C2CCN(c3ccc(-c4cscn4)cc3)CC2)CC1 | 6 | -0.77
CN(Cc1csc(-c2cccs2)n1)C(=O)COC[C@H]1CCCO1 | -9 | 1.71
CCc1nc(NS(=O)(=O)Cc2ccccc2C)no1 | 31 | -3.45
Cc1csc([C@H](C)N(C)C(=O)c2ncoc2C)n1 | -22 | 2.33
C[C@@H](CCNc1ncnc2scnc12)NC(=O)OC(C)(C)C | -13 | 2.03
CC1CCN(C(=O)OC(C)(C)C)C(C)C1NS(C)(=O)=O (stereo not drawn) | -3 | 0.58
CCN1CC2(CCN(C(=O)CNC(N)=O)CC2)C[C@@H](c2ccccc2)C1=O | -18 | 1.64
